Measured values reported in PubChem BioAssay (NCI).
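Tested at 5 concentrations; 48 h exposure; 96-well plates; endpoints linearly interpolated, else capped at highest concentration. Here, GI50 denotes the concentration required for 50% inhibition of growth. At the TGI there is no net growth.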

Test system: NCI-H322M lung
Test: DTP human tumour cell line panel, 48 h

Row | Structure (SMILES) | GI50 | TGI
1 | Oc1ccc(F)c(Nc2nc(SCCN3CCOCC3)nc3c2cnn3CC(Cl)c2ccc(Br)cc2)c1 (centres undefined) | 30.3 µM | > 100 µM
2 | COc1cc(/C=C/C(=O)c2ccc(C)cc2)ccc1Oc1nc(Nc2ccc(F)cc2)nc(N(C)C)n1 | 51.9 µM | > 100 µM
